Measurements published in PubChem BioAssay (NCI).
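Compound exposure: 48 hours, 5 concentrations, 96-well plates. At the TGI there is no net growth.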

Assays:
Assay in all cases: growth of human tumour cells (NCI), 48 h
HL-60(TB) leukemia = tested on: HL-60(TB) leukemia
SNB-75 CNS = tested on: SNB-75 CNS
COLO 205 colon = tested on: COLO 205 colon
HCC-2998 colon = tested on: HCC-2998 colon
MALME-3M melanoma = tested on: MALME-3M melanoma
MOLT-4 leukemia = tested on: MOLT-4 leukemia
OVCAR-8 ovarian = tested on: OVCAR-8 ovarian
LOX IMVI melanoma = tested on: LOX IMVI melanoma
ACHN renal = tested on: ACHN renal
RPMI-8226 leukemia = tested on: RPMI-8226 leukemia
HOP-92 NSCLC = tested on: HOP-92 NSCLC
BT-549 breast = tested on: BT-549 breast
MDA-N = tested on: MDA-N
NCI-H226 lung = tested on: NCI-H226 lung
786-0 renal = tested on: 786-0 renal
SN12C renal = tested on: SN12C renal
U251 CNS = tested on: U251 CNS
SR leukemia = tested on: SR leukemia
NCI-H522 lung = tested on: NCI-H522 lung
OVCAR-5 ovarian = tested on: OVCAR-5 ovarian
CCRF-CEM leukemia = tested on: CCRF-CEM leukemia
NCI-H23 lung = tested on: NCI-H23 lung
EKVX NSCLC = tested on: EKVX NSCLC
UACC-257 melanoma = tested on: UACC-257 melanoma
HCT-15 colon = tested on: HCT-15 colon
RXF 393 renal = tested on: RXF 393 renal
A549 NSCLC = tested on: A549 NSCLC
MCF7 breast = tested on: MCF7 breast
HS 578T breast = tested on: HS 578T breast
HCT-116 colon = tested on: HCT-116 colon
IGROV1 ovarian = tested on: IGROV1 ovarian
MDA-MB-231 breast = tested on: MDA-MB-231 breast
HT29 colon = tested on: HT29 colon
SK-MEL-5 melanoma = tested on: SK-MEL-5 melanoma
SF-268 CNS = tested on: SF-268 CNS
SF-295 CNS = tested on: SF-295 CNS
TK-10 renal = tested on: TK-10 renal
SW-620 colon = tested on: SW-620 colon
SK-MEL-28 melanoma = tested on: SK-MEL-28 melanoma
NCI/ADR-RES ovarian = tested on: NCI/ADR-RES ovarian
CAKI-1 renal = tested on: CAKI-1 renal
KM12 colon = tested on: KM12 colon
MDA-MB-435 = tested on: MDA-MB-435
OVCAR-3 ovarian = tested on: OVCAR-3 ovarian
PC-3 prostate = tested on: PC-3 prostate
A498 renal = tested on: A498 renal
SF-539 CNS = tested on: SF-539 CNS
K-562 leukemia = tested on: K-562 leukemia
SNB-19 CNS = tested on: SNB-19 CNS
HOP-62 NSCLC = tested on: HOP-62 NSCLC
NCI-H460 lung = tested on: NCI-H460 lung
DU-145 prostate = tested on: DU-145 prostate

## O=C1Cc2c([nH]c3ccc(F)cc23)-c2ccccc2N1
HL-60(TB) leukemia
  TGI: 45.5 µM
SNB-75 CNS
  TGI: > 100 µM
COLO 205 colon
  TGI: > 100 µM
HCC-2998 colon
  TGI: 63.1 µM
MALME-3M melanoma
  TGI: > 100 µM
MOLT-4 leukemia
  TGI: 49.9 µM
OVCAR-8 ovarian
  TGI: > 100 µM
LOX IMVI melanoma
  TGI: > 100 µM
ACHN renal
  TGI: > 100 µM
RPMI-8226 leukemia
  TGI: 41.6 µM
HOP-92 NSCLC
  TGI: 77.5 µM
BT-549 breast
  TGI: > 100 µM
MDA-N
  TGI: > 100 µM
NCI-H226 lung
  TGI: > 100 µM
786-0 renal
  TGI: > 100 µM
SN12C renal
  TGI: 97.9 µM
U251 CNS
  TGI: 81.8 µM
SR leukemia
  TGI: 42.5 µM
NCI-H522 lung
  TGI: 51.2 µM
OVCAR-5 ovarian
  TGI: 88.1 µM
CCRF-CEM leukemia
  TGI: 68.7 µM
NCI-H23 lung
  TGI: > 100 µM
EKVX NSCLC
  TGI: > 100 µM
UACC-257 melanoma
  TGI: > 100 µM
HCT-15 colon
  TGI: 73.2 µM
RXF 393 renal
  TGI: 11 µM
A549 NSCLC
  TGI: 37.5 µM
MCF7 breast
  TGI: 82.4 µM
HS 578T breast
  TGI: 68.6 µM
HCT-116 colon
  TGI: > 100 µM
IGROV1 ovarian
  TGI: > 100 µM
MDA-MB-231 breast
  TGI: > 100 µM
HT29 colon
  TGI: 85.1 µM
SK-MEL-5 melanoma
  TGI: 30.4 µM
SF-268 CNS
  TGI: > 100 µM
SF-295 CNS
  TGI: > 100 µM
TK-10 renal
  TGI: > 100 µM
SW-620 colon
  TGI: > 100 µM
SK-MEL-28 melanoma
  TGI: > 100 µM
NCI/ADR-RES ovarian
  TGI: > 100 µM
CAKI-1 renal
  TGI: > 100 µM
KM12 colon
  TGI: > 100 µM
MDA-MB-435
  TGI: > 100 µM
OVCAR-3 ovarian
  TGI: > 100 µM
PC-3 prostate
  TGI: 96.5 µM
A498 renal
  TGI: 87.9 µM
SF-539 CNS
  TGI: 75.4 µM
K-562 leukemia
  TGI: > 100 µM
SNB-19 CNS
  TGI: > 100 µM
HOP-62 NSCLC
  TGI: 92.5 µM
NCI-H460 lung
  TGI: > 100 µM
DU-145 prostate
  TGI: > 100 µM
